From PubChem BioAssay AID1347165 (National Center for Advancing Translational Sciences (NCATS), 2019)
In all, about 220,000 compounds went through this assay and about 5,700 (2.6%) were called active. Inconclusive means that the source gave no clear call. Such entries were picked first, then a sample of the others. Calls come from the whole dose curve; as a rule, active = well fitted inhibition curve with a large enough effect; inconclusive = small, poorly fitted or top-dose-only effect; inactive = no such curve, though single readings can be large or run the other way. Where the call is inconclusive, the potency comes from a doubtful curve fit.

Molecular target: Lysine-specific demethylase 5B (Homo sapiens) (UniProt Q9UGL1)
Chain of UniProt Q9UGL1 (Q9UGL1 whole entry, looked up): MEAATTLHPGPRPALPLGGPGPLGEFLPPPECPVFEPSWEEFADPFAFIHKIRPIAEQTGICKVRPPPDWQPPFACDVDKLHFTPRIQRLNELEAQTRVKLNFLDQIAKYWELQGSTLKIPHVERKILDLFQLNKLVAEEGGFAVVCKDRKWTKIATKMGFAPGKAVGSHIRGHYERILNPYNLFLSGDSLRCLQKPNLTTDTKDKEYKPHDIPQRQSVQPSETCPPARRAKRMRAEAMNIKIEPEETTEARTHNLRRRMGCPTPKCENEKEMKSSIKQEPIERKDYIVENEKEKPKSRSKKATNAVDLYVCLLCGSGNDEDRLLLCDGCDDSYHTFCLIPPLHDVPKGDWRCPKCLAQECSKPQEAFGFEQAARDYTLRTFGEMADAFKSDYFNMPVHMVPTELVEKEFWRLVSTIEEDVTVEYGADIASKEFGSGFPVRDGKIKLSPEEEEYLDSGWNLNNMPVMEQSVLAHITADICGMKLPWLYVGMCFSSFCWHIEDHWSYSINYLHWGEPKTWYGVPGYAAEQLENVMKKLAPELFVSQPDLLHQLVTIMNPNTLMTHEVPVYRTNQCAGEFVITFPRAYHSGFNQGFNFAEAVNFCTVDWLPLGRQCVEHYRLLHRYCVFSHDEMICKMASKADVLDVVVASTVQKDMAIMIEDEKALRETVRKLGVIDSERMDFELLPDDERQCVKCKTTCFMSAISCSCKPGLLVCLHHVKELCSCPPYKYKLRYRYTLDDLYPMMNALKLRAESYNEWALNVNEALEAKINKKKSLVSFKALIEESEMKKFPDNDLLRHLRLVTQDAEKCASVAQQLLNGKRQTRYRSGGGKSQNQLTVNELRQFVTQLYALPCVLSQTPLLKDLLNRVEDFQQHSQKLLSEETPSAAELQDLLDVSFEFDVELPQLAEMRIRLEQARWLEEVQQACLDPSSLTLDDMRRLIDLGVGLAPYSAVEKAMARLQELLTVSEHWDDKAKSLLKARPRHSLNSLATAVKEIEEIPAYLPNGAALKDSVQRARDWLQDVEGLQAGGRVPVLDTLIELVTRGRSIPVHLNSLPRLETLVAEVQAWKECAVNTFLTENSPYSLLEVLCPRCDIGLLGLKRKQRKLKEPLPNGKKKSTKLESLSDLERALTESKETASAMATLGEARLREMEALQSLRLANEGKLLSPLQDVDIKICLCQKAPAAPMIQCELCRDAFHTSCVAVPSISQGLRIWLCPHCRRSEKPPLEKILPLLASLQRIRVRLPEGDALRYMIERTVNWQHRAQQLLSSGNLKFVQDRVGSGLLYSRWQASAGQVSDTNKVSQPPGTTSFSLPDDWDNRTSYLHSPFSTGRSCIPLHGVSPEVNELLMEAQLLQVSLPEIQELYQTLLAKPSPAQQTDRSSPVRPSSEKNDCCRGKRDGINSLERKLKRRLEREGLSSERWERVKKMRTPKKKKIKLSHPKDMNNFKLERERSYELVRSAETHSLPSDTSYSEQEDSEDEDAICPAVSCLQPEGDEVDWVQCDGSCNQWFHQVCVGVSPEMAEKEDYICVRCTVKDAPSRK
Test: Primary screen for KDM5B Histone Demethylases FDH-coupled qHTS; note: nearly all actives have a fitted effect of over 70% in size
Details: FDH-coupled NADH fluorescence (FDH is formaldehyde dehydrogenase); series mostly up to 57.7 µM
Outline: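 Here, H3K4me3 peptide (12.5 µM in substrate mix) is demethylated by KDM5BΔAP, 200 nM final, after 10 min compound exposure. Formaldehyde product is coupled through FDH (0.25 U/mL in mix) to NADH fluorescence; 30-min ΔRFU feeds dose-response curves.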
Potency is the fitted concentration of half-maximal effect; tags give direction and shape of the fitted curve.

Question: COc1ccc(NC(=O)CSC2=Nc3ccccc3C3=NC(Cc4ccccc4)C(=O)N23)cc1 (centres undefined) was tested. Which Potency did it give?
Answer: inconclusive: 35.5 µM [inhibitor, single point]

Question: Which Potency does the source give for Cc1csc(Nc2ccc3c(n2)CN(Cc2ccccc2C)C(=O)CO3)n1 here?
Answer: inconclusive: 25.1 µM [inhibitor, partial curve, poor fit]

Question: With Cc1ccc(N(Cc2cc(=O)[nH]c3ccccc23)C(=O)c2ccncc2)cc1 as the compound, how does the Potency read?
Answer: inconclusive: 28.2 µM [inhibitor, single point]

Question: Cc1ccc(Nc2c(-c3ccco3)nc3ccc(C)cn23)cc1 was tested. Which Potency did it give?
Answer: inconclusive: 12.6 µM [inhibitor, partial curve, poor fit]

Question: How did the Potency turn out when CSc1nccc(-c2sc(SC)c(C#N)c2-c2ccccc2)n1 was run?
Answer: inconclusive: 17.8 µM [inhibitor, partial curve, poor fit]

Question: How did the Potency turn out when N/C(=N\OC(=O)c1cc([N+](=O)[O-])ccc1Cl)c1cccnc1 was run?
Answer: inconclusive: 31.6 µM [inhibitor, single point]

Question: How did the Potency turn out when CCN1c2cc(C(=O)NC3CCCC3)ccc2C(=O)N2CCCCCC21 (centres undefined) was run?
Answer: inconclusive: 25.1 µM [inhibitor, partial curve, poor fit]

Question: For N#Cc1cc(-c2ccccc2)[nH]c1-c1nccc2ccccc12, which Potency is on record?
Answer: inconclusive: 31.6 µM [inhibitor, partial curve, poor fit]

Question: Which Potency does the source give for COc1ccc(CC(=O)Nc2c(C(=O)N3CCN(c4ccccc4F)CC3)oc3ccccc23)cc1OC here?
Answer: inconclusive: 39.8 µM [inhibitor, single point]

Question: Fc1ccc(C2Cc3ccccc3N2)cc1 (centres undefined) was tested. Which Potency did it give?
Answer: inconclusive: 25.1 µM [inhibitor, single point]

Question: CCn1nccc1C(=O)NCc1cc(C)cc2c(C)c(-c3ccccc3)[nH]c12 was tested. Which Potency did it give?
Answer: active: 12.6 µM

Question: Which Potency does the source give for Cc1noc(C)c1CCC(=O)NC1CCCc2c1[nH]c1ccc(F)cc21 (centres undefined) here?
Answer: inconclusive: 20 µM [inhibitor, single point]

Question: O=C(/C=C/c1ccccc1)c1ccc(-n2cc(-c3ccccc3)cc2-c2ccccc2)cc1 was tested. Which Potency did it give?
Answer: inconclusive: 31.6 µM [inhibitor, partial curve, poor fit]

Question: Cc1ccc(S(=O)(=O)NCCc2nnc3ccc(SCc4cccc(F)c4)nn23)cc1 was tested. Which Potency did it give?
Answer: inconclusive: 2.82 µM [inhibitor, full curve, poor fit]

Question: CC(Cl)C(=O)NC(C)C1CC2CCC1C2 (centres undefined) was tested. Which Potency did it give?
Answer: inactive

Question: Which Potency does the source give for COc1ccc(-n2nnnc2C2CCN(S(=O)(=O)c3cc(Cl)ccc3OC)CC2)cc1 here?
Answer: inconclusive: 22.4 µM [inhibitor, partial curve, poor fit]

Question: Cc1c(C(=O)Nc2ccc(S(=O)(=O)N(C)C)cc2)oc2c(Cl)cccc12 was tested. Which Potency did it give?
Answer: inconclusive: 39.8 µM [inhibitor, single point]

Question: With O=C(Nc1ccc(NC(=O)C2CCN(c3nc4ccccc4o3)CC2)cc1)C1CC1 as the compound, how does the Potency read?
Answer: inactive

Question: Which Potency does the source give for NC(=O)NC(=O)CN1c2cccc3cccc(c23)S1(=O)=O here?
Answer: inconclusive: 17.8 µM [inhibitor, partial curve, poor fit]

Question: How did the Potency turn out when CCc1c(C)sc2nc(N(CCO)CCO)n3nc(-c4ccccc4)nc3c12 was run?
Answer: inconclusive: 25.1 µM [inhibitor, partial curve, poor fit]

Question: For Cc1ccc2oc(-c3cccc(NC(=O)c4cccc([N+](=O)[O-])c4C)c3)nc2c1, which Potency is on record?
Answer: inactive

Question: CC(=O)N1CCN(C(=O)c2c(C)oc3c2CN(Cc2ccc(F)cc2)CC3)CC1 was tested. Which Potency did it give?
Answer: inconclusive: 22.4 µM [inhibitor, partial curve]

Question: How did the Potency turn out when CCCCN1C(=O)C(NC(=O)c2ccc(C(C)(C)C)cc2)(C(F)(F)F)C(C(=O)OC)=C1C (centres undefined) was run?
Answer: inconclusive: 22.4 µM [inhibitor, single point]

Question: For Cc1cc(SCC(=O)NC(=O)NCc2ccccc2)nc2ccccc12, which Potency is on record?
Answer: inactive

Question: For CN(C)c1ncc2c(n1)C(C)(C(=O)Nc1ccncc1)CCC2 (centres undefined), which Potency is on record?
Answer: active: 31.6 µM

Question: With Cc1cc(O)c(C(c2ccc(F)cc2)N2CCN(c3ccccc3)CC2)c(=O)n1Cc1ccco1 (centres undefined) as the compound, how does the Potency read?
Answer: inconclusive: 50.1 µM [inhibitor, single point]

Question: How did the Potency turn out when CCOC(=O)C1CCCN(C(=O)Cc2ccc(N(Cc3ccccc3)C(=O)c3ccco3)cc2)C1 (centres undefined) was run?
Answer: inactive

Question: For C[N+](C)(C)c1ccc(/C=N/N=C/c2ccccc2)cc1, which Potency is on record?
Answer: inactive

Question: With CCc1noc(-c2ccn3c(CNC(=O)c4cc5ccccc5[nH]4)nnc3c2)n1 as the compound, how does the Potency read?
Answer: inconclusive: 2 µM [inhibitor, full curve, poor fit]

Question: With COc1ccc(OC)c(C(=O)CN2C(=O)N(c3cc(C)cc(C)c3)S(=O)(=O)c3ccccc32)c1 as the compound, how does the Potency read?
Answer: inconclusive: 28.2 µM [inhibitor, partial curve, poor fit]

Question: CN(C)c1ccc(C=Nc2cccc3ccccc23)cc1 was tested. Which Potency did it give?
Answer: inconclusive: 25.1 µM [inhibitor, partial curve, poor fit]

Question: For Cc1cnc(C(=O)Nc2cc(Cl)c(NC(=O)c3ccc(S(C)(=O)=O)cc3)c(Cl)c2)cn1, which Potency is on record?
Answer: inactive

Question: How did the Potency turn out when CCCS(=O)(=O)c1ncc(Cl)c(C(=O)N(Cc2ccc(C)cc2)C2CCS(=O)(=O)C2)n1 (centres undefined) was run?
Answer: inconclusive: 11.2 µM [inhibitor, partial curve, poor fit]

Question: Which Potency does the source give for Cc1nc(-c2cccnc2)sc1CCNS(=O)(=O)c1cccs1 here?
Answer: inconclusive: 22.4 µM [inhibitor, single point]

Question: With CCN1CCN(c2oc(-c3ccc(COc4ccc(OC)cc4)o3)nc2C#N)CC1 as the compound, how does the Potency read?
Answer: inconclusive: 25.1 µM [inhibitor, partial curve, poor fit]

Question: COc1cccc(Nc2cc3c(cn2)NCCN(Cc2ccccc2)C3)c1 was tested. Which Potency did it give?
Answer: active: 39.8 µM

Question: Which Potency does the source give for Cc1ccccc1OCC(O)Cn1c(NCCc2ccccc2)nc2c1c(=O)[nH]c(=O)n2C (centres undefined) here?
Answer: inactive

Question: With COCCn1c2c(c(=O)[nH]c1=O)C(c1cccc3ccccc13)C1=C(N2)c2ccccc2C1=O (centres undefined) as the compound, how does the Potency read?
Answer: inconclusive: 11.2 µM [inhibitor, partial curve, poor fit]

Question: With CC1(C)C2CC=C(/C=N/NC(N)=S)C1C2 (centres undefined) as the compound, how does the Potency read?
Answer: inconclusive: 10 µM [inhibitor, partial curve, poor fit]

Question: With O=C(CCn1c(=O)c2cccn2c2ccc(F)cc21)NCCc1ccc(Cl)cc1 as the compound, how does the Potency read?
Answer: inconclusive: 28.2 µM [inhibitor, partial curve, poor fit]

Question: For CCCNC(=O)c1coc(COc2ccc3c(c2)C(c2ccc(F)cc2)N(C(=O)C(C)C)CC3)n1 (centres undefined), which Potency is on record?
Answer: inactive

Question: For Clc1ccc(-c2ccc(CNCCSc3nnnn3-c3ccccc3)o2)cc1, which Potency is on record?
Answer: inconclusive: 44.7 µM [inhibitor, single point]

Question: CCCc1c(C)nc2ncnn2c1Nc1ccc(C)c(C)c1 was tested. Which Potency did it give?
Answer: inactive

Question: How did the Potency turn out when CC(=O)Nc1cccc(OCCc2ccccc2)c1 was run?
Answer: inactive

Question: How did the Potency turn out when CCCCCN1C(C(=O)c2ccccc2)=C(NC(=O)c2ccc(OC)c(OC)c2)c2ccccc2S1(=O)=O was run?
Answer: inconclusive: 25.1 µM [inhibitor, partial curve, poor fit]

Question: For CCN1c2cc(C(=O)Nc3ccc(Br)cc3)ccc2C(=O)N2CCCCCC21 (centres undefined), which Potency is on record?
Answer: inconclusive: 31.6 µM [inhibitor, partial curve, poor fit]

Question: For Cc1cc(CN2C[C@@H](CO)[C@H](NC(=O)c3ccccc3)C2)n(C)n1, which Potency is on record?
Answer: inactive

Question: CC(C)CC(=O)N1CCOCC12CCN(CCCc1ccccc1)CC2 was tested. Which Potency did it give?
Answer: inconclusive: 56.2 µM [inhibitor, single point]

Question: How did the Potency turn out when COc1ccc(N2C(=O)c3ccccc3NC2c2cnn(-c3ccccc3)n2)cc1 (centres undefined) was run?
Answer: inconclusive: 28.2 µM [inhibitor, single point]

Question: With CC(=O)N1CCC(C(=O)NC2CCN(c3cc(-c4ccccc4)[nH]n3)CC2)CC1 as the compound, how does the Potency read?
Answer: inconclusive: 28.2 µM [inhibitor, single point]

Question: Which Potency does the source give for CC(C)CCN1CCn2c(nnc2C2CCCNC2)C1 (centres undefined) here?
Answer: inconclusive: 39.8 µM [inhibitor, partial curve, poor fit]

Question: How did the Potency turn out when Cc1ccc(Cl)cc1-n1c(=O)c2sc3ccccc3c2n(CC(=O)NC2CCCC2)c1=O was run?
Answer: inconclusive: 31.6 µM [inhibitor, partial curve, poor fit]

Question: How did the Potency turn out when COc1ccc(-c2nnc([C@H]3CCN(C)C3)o2)cc1 was run?
Answer: inconclusive: 31.6 µM [inhibitor, partial curve]

Question: For Oc1c(C(c2ccc(F)cc2)N2CCCC2)sc2nc(-c3ccco3)nn12 (centres undefined), which Potency is on record?
Answer: inconclusive: 28.2 µM [inhibitor, partial curve, poor fit]

Question: Which Potency does the source give for COc1ccc(-c2nc(CSCC(=O)NCc3ccccc3)c(C)o2)cc1OC here?
Answer: inconclusive: 39.8 µM [inhibitor, single point]

Question: For COc1nc2nc(CC3CC3)n(C)c2cc1-c1ccc(CO)cc1, which Potency is on record?
Answer: active: 35.5 µM

Question: Which Potency does the source give for CC1CCN(CCNC(=O)c2ccc(Cn3c(SCc4ccccc4)nc4cccnc43)cc2)CC1 here?
Answer: inconclusive: 28.2 µM [inhibitor, partial curve, poor fit]

Question: O=C1NCc2ccccc2CC12CCN(Cc1ccc(Br)cn1)CC2 was tested. Which Potency did it give?
Answer: inactive

Question: For Cn1nc(-c2nncn2CC2CC2)c2c1CCN(C(=O)Cc1c[nH]c3ccccc13)C2, which Potency is on record?
Answer: inconclusive: 15.8 µM [inhibitor, partial curve, poor fit]

Question: With COc1cc(/C=C2\Oc3c(ccc(OS(C)(=O)=O)c3C)C2=O)cc(OC)c1OC as the compound, how does the Potency read?
Answer: inactive

Question: Which Potency does the source give for CNC(=O)c1ccccc1NCC(=O)Nc1sc2c(c1C#N)CCCCC2 here?
Answer: inactive

Question: For CC(C)NC(=O)c1cccc2c1CCCN2CC(=O)NC(C)c1ccccc1 (centres undefined), which Potency is on record?
Answer: inconclusive: 25.1 µM [inhibitor, partial curve, poor fit]

Question: Which Potency does the source give for NC(=O)Cn1ccc2cc(OCC3CCN(c4cc(NC5CC5)ncn4)CC3)cnc21 here?
Answer: active: 39.8 µM

Question: With O=c1cc(CN2CCN(c3ccccc3F)CC2)c2cc(Cl)c(O)cc2o1 as the compound, how does the Potency read?
Answer: inconclusive: 14.1 µM [inhibitor, partial curve, poor fit]
